# In the supplement of paper PMC8728848:
# This is one part of the list.
# Assays:
# Test in all cases: glycan array binding signal (z-score within array); higher = stronger binding
# Settings in all cases: glycan notation: IUPAC condensed, linker removed
# [1] = biological target: Fuc(a1-2)[Gal(a1-3)]Gal(b1-4)GlcNAc(b1-2)Man(a1-3)[Fuc(a1-2)[Gal(a1-3)]Gal(b1-4)GlcNAc(b1-2)Man(a1-6)]Man(b1-4)GlcNAc(b1-4)GlcNAc
# Method in brief: (§1)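 Negative Z-scores can be read as non-binding. The Z-score is calculated within each array and then averaged across arrays of one protein sequence at different concentrations or buffers and across linkers. Arrays, 3228 in all, were curated from the Consortium for Functional Glycomics database and kept only where the protein sequence was available.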
# [2] = biological target: Fuc(a1-2)[Gal(a1-3)]Gal(b1-4)GlcNAc(b1-2)Man(a1-3)[Fuc(a1-2)[Gal(a1-3)]Gal(b1-4)GlcNAc(b1-2)Man(a1-6)]Man(b1-4)GlcNAc(b1-4)[Fuc(a1-6)]GlcNAc
# Method in brief: as §1
# [3] = biological target: Fuc(a1-2)[Gal(a1-3)]Gal(b1-4)GlcNAc(b1-3)GalNAc
# Method in brief: as §1
# [4] = biological target: Fuc(a1-2)[Gal(a1-3)]Gal(b1-4)GlcNAc(b1-3)[Fuc(a1-2)[Gal(a1-3)]Gal(b1-4)GlcNAc(b1-6)]GalNAc
# Method in brief: as §1
# [5] = biological target: Fuc(a1-2)[Gal(a1-3)]Gal(b1-4)GlcNAc(b1-6)GalNAc
# Method in brief: as §1
# [6] = biological target: Fuc(a1-2)[Gal(a1-3)]Gal(b1-4)[Fuc(a1-3)]Glc
# Method in brief: as §1
# [7] = biological target: Fuc(a1-2)[Gal(a1-3)]Gal(b1-4)[Fuc(a1-3)]GlcNAc
# Method in brief: as §1
# [8] = biological target: Fuc(a1-2)[Gal(a1-3)]Gal(b1-4)[Fuc(a1-3)]GlcNAc(b1-3)GalNAc
# Method in brief: as §1
# [9] = biological target: Fuc(a1-2)[Gal(a1-4)]Gal(b1-4)GlcNAc
# Method in brief: as §1
# [10] = biological target: Fuc(a1-2)[GalNAc(a1-3)]Gal
# Method in brief: as §1
# [11] = biological target: Fuc(a1-2)[GalNAc(a1-3)]Gal(b1-3)GalNAc(a1-3)[Fuc(a1-2)]Gal(b1-4)GlcNAc
# Method in brief: as §1
# [12] = biological target: Fuc(a1-2)[GalNAc(a1-3)]Gal(b1-3)GalNAc(b1-3)Gal(a1-4)Gal(b1-4)Glc
# Method in brief: as §1
# [13] = biological target: Fuc(a1-2)[GalNAc(a1-3)]Gal(b1-3)GlcNAc
# Method in brief: as §1
# [14] = biological target: Fuc(a1-2)[GalNAc(a1-3)]Gal(b1-3)GlcNAc(b1-2)Man(a1-3)[Fuc(a1-2)[GalNAc(a1-3)]Gal(b1-3)GlcNAc(b1-2)Man(a1-6)]Man(b1-4)GlcNAc(b1-4)GlcNAc
# Method in brief: as §1
# [15] = biological target: Fuc(a1-2)[GalNAc(a1-3)]Gal(b1-3)GlcNAc(b1-2)Man(a1-3)[Fuc(a1-2)[GalNAc(a1-3)]Gal(b1-3)GlcNAc(b1-2)Man(a1-6)]Man(b1-4)GlcNAc(b1-4)[Fuc(a1-6)]GlcNAc
# Method in brief: as §1
# [16] = biological target: Fuc(a1-2)[GalNAc(a1-3)]Gal(b1-3)GlcNAc(b1-3)GalNAc
# Method in brief: as §1
# [17] = biological target: Fuc(a1-2)[GalNAc(a1-3)]Gal(b1-3)GlcNAc(b1-6)GalNAc
# Method in brief: as §1
# [18] = biological target: Fuc(a1-2)[GalNAc(a1-3)]Gal(b1-4)Glc
# Method in brief: as §1
# [19] = biological target: Fuc(a1-2)[GalNAc(a1-3)]Gal(b1-4)GlcNAc
# Method in brief: as §1
# [20] = biological target: Fuc(a1-2)[GalNAc(a1-3)]Gal(b1-4)GlcNAc(b1-2)Man
# Method in brief: as §1
# [21] = biological target: Fuc(a1-2)[GalNAc(a1-3)]Gal(b1-4)GlcNAc(b1-2)Man(a1-3)[Fuc(a1-2)[GalNAc(a1-3)]Gal(b1-4)GlcNAc(b1-2)Man(a1-6)]Man(b1-4)GlcNAc(b1-4)GlcNAc
# Method in brief: as §1
# [22] = biological target: Fuc(a1-2)[GalNAc(a1-3)]Gal(b1-4)GlcNAc(b1-2)Man(a1-3)[Fuc(a1-2)[GalNAc(a1-3)]Gal(b1-4)GlcNAc(b1-2)Man(a1-6)]Man(b1-4)GlcNAc(b1-4)[Fuc(a1-6)]GlcNAc
# Method in brief: as §1
# [23] = biological target: Fuc(a1-2)[GalNAc(a1-3)]Gal(b1-4)GlcNAc(b1-3)Gal(b1-4)GlcNAc
# Method in brief: as §1
# [24] = biological target: Fuc(a1-2)[GalNAc(a1-3)]Gal(b1-4)GlcNAc(b1-3)Gal(b1-4)GlcNAc(b1-3)Gal(b1-4)GlcNAc
# Method in brief: as §1
# [25] = biological target: Fuc(a1-2)[GalNAc(a1-3)]Gal(b1-4)GlcNAc(b1-3)GalNAc
# Method in brief: as §1
# [26] = biological target: Fuc(a1-2)[GalNAc(a1-3)]Gal(b1-4)GlcNAc(b1-3)[Fuc(a1-2)[GalNAc(a1-3)]Gal(b1-4)GlcNAc(b1-6)]GalNAc
# Method in brief: as §1
# [27] = biological target: Fuc(a1-2)[GalNAc(a1-3)]Gal(b1-4)GlcNAc(b1-6)GalNAc
# Method in brief: as §1
# [28] = biological target: Fuc(a1-2)[GalNAc(a1-3)]Gal(b1-4)[Fuc(a1-3)]GlcNAc
# Method in brief: as §1
# [29] = biological target: Fuc(a1-2)[GalNAc(a1-3)]Gal(b1-4)[Fuc(a1-3)]GlcNAc(b1-3)GalNAc
# Method in brief: as §1
# [30] = biological target: Fuc(a1-2)[GalNAc(a1-4)]Gal(b1-4)GlcNAc
# Method in brief: as §1
binder,measurement,setting,value
"AT1G15820(2) (Arabidopsis thaliana), Q9LMQ2 (protein) MAMAVSGAVLSGLGSSFLTGGKRGATALASGVGTGAQRVGRKTLIVAAAAAQPKKSWIPAVKGGGNFLDPEWLDGSLPGDFGFDPLGLGKDPAFLKWYREAELIHGRWAMAAVLGIFVGQAWSGVAWFEAGAQPDAIAPFSFGSLLGTQLLLMGWVESKRWVDFFNPDSQSVEWATPWSKTAENFANYTGDQGYPGGRFFDPLGLAGKNRDGVYEPDFEKLERLKLAEIKHSRLAMVAMLIFYFEAGQGKTPLGALGL",glycan array binding signal (z-score),[1],0.073
same,glycan array binding signal (z-score),[2],-0.258
same,glycan array binding signal (z-score),[3],-0.453
same,glycan array binding signal (z-score),[4],0.536
same,glycan array binding signal (z-score),[5],-0.013
same,glycan array binding signal (z-score),[6],-0.194
same,glycan array binding signal (z-score),[7],0.049
same,glycan array binding signal (z-score),[8],-0.093
same,glycan array binding signal (z-score),[9],1.93
same,glycan array binding signal (z-score),[10],-0.193
same,glycan array binding signal (z-score),[11],-0.559
same,glycan array binding signal (z-score),[12],-0.087
same,glycan array binding signal (z-score),[13],-0.002
same,glycan array binding signal (z-score),[14],-0.269
same,glycan array binding signal (z-score),[15],-0.23
same,glycan array binding signal (z-score),[16],-0.086
same,glycan array binding signal (z-score),[17],-0.457
same,glycan array binding signal (z-score),[18],-0.507
same,glycan array binding signal (z-score),[19],-0.215
same,glycan array binding signal (z-score),[20],-0.387
same,glycan array binding signal (z-score),[21],-0.191
same,glycan array binding signal (z-score),[22],0.474
same,glycan array binding signal (z-score),[23],0.139
same,glycan array binding signal (z-score),[24],-0.057
same,glycan array binding signal (z-score),[25],-0.289
same,glycan array binding signal (z-score),[26],0.206
same,glycan array binding signal (z-score),[27],-0.421
same,glycan array binding signal (z-score),[28],-0.218
same,glycan array binding signal (z-score),[29],6.82
same,glycan array binding signal (z-score),[30],-0.23
